Assay results taken from PubChem BioAssay AID504332 (National Center for Advancing Translational Sciences (NCATS), 2011).
Hit rate of the full screen: of about 350,000 compounds, about 31,000 (8.9%) were called active. Inconclusive results, whose numbers are uncertain, are shown with a selection of clear calls. The call rests on the fitted dose curve; in most records, active means well fitted inhibition curve with a large enough effect; inconclusive means small, poorly fitted or top-dose-only effect; inactive means no such curve, though single readings can be large or run the other way. Where the call is inconclusive, the potency comes from a doubtful curve fit.

Each compound was assayed against Histone-lysine N-methyltransferase EHMT2 (Homo sapiens) (UniProt Q96KQ7) (assay: qHTS Assay for Inhibitors of Histone Lysine Methyltransferase G9a). Conditions: G9a H3K9 monomethylation, AlphaScreen, 2 h; activity, negative = inhibition: at 59 µM (top of the series) unless noted.
Procedure, shortened: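 G9a (20 nM) preincubated 15 min RT with compounds, then 500 nM biotinylated H3K9 peptide and 20 uM SAM added; 2 h RT reaction. Monomethyl-H3K9 product detected by AlphaScreen with anti-H3K9me1 antibody, streptavidin donor and anti-rabbit IgG acceptor beads.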
Further: nearly all actives have a fitted effect of over 75% in size.
On the % scale 0 is the no-effect control and ±100 the full control effect; potency means the concentration at half of the fitted maximal effect; tags describe the fitted curve by direction and shape.

Sequence of UniProt Q96KQ7 (Q96KQ7 whole entry, looked up): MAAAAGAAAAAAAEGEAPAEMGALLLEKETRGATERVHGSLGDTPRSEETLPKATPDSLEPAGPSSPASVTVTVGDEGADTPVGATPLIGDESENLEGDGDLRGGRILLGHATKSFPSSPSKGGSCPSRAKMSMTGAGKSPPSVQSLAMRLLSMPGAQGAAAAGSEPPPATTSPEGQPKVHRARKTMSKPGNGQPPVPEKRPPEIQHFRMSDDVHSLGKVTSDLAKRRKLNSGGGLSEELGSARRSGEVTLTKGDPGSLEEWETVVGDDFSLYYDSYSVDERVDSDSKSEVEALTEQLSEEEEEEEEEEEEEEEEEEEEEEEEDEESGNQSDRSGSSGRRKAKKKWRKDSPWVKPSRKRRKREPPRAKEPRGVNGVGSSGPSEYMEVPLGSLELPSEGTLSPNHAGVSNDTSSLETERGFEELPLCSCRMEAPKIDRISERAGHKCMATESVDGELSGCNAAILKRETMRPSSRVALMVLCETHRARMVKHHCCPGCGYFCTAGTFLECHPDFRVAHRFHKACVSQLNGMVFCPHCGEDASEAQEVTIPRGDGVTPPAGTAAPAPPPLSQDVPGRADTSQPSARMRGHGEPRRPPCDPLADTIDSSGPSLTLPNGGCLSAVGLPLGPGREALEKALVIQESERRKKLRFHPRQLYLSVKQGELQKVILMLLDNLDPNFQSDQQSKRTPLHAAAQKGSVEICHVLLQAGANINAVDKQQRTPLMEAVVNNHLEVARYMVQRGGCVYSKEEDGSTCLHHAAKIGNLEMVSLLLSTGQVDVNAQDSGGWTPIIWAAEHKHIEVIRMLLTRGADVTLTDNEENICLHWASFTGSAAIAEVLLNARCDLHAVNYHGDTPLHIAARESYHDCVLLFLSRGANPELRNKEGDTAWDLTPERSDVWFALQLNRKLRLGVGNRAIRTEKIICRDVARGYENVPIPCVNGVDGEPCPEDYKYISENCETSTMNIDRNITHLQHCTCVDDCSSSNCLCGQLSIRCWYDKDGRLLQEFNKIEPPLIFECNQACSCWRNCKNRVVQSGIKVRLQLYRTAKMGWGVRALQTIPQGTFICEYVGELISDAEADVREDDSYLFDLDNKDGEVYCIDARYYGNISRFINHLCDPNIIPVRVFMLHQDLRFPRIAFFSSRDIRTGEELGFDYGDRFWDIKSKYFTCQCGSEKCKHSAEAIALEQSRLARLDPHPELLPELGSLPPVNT

| Structure (SMILES) | Potency | activity, negative = inhibition |
| --- | --- | --- |
| COc1c(C(C)C)oc2cc3oc(=O)ccc3cc12 | inconclusive: 28.2 µM [inhibitor, partial curve, poor fit] |  |
| Cn1c(CCNC(=O)c2ccco2)nc2cc(NC(=O)COc3ccc(Cl)cc3)ccc21 | inconclusive: 28.2 µM [inhibitor, single point] |  |
| O=C(NC1CCCCC1)C1CCN(C(=O)c2ccc(Cl)cc2)CC1 | inconclusive: 50.1 µM [inhibitor, partial curve] |  |
| Cc1cccc2nc(CSc3nc4ccc([N+](=O)[O-])cc4[nH]3)cn12 | inconclusive: 28.2 µM [inhibitor, single point] |  |
| COC(=O)N1c2ccccc2C=Cc2ccccc21 |  | inactive: -6.98% [at 102 µM] |
| Cc1ccc(-n2cnn(-c3ccc([N+](=O)[O-])cc3[N+](=O)[O-])c2=O)cc1 | inconclusive: 50.1 µM [inhibitor, partial curve, poor fit] |  |
| Cc1cc(OCC(=O)NCC2(N3CCOCC3)CCCCC2)ccc1Cl |  | inactive: 1.41% |
| CC(C)(C)OC(=O)CNC(=O)c1[nH]cnc1C(=O)Nc1ccc(Cl)cc1 | inconclusive: 0.251 µM [inhibitor, partial curve, poor fit] |  |
| COc1ccc(C2C=C(c3ccc(Br)cc3)Nc3nc(NS(C)(=O)=O)nn32)cc1 (stereo not given) | inconclusive: 25.1 µM [inhibitor, single point] |  |
| CCc1noc(-c2ccc(N3CCCCC3)c([N+](=O)[O-])c2)n1 |  | inactive: -47.7% |
| COC1CCCCC1Nc1cc(C)cc(C)c1 (stereo not given) | active: 14.1 µM |  |
| COc1ccc(NC(=O)c2ccc(COc3ccccc3)o2)cc1 |  | inactive: -4.16% |
| COc1cccc(OCCOc2ccc(/C=C3\C(=N)N4N=C(S(C)(=O)=O)SC4=NC3=O)cc2OC)c1 | active: 39.8 µM |  |
| Nc1nc(N)c2ncc(C(=O)CCc3ccccc3)nc2n1 | active: 39.8 µM |  |
| COc1ccc2c(c1)OC(=O)CC2c1ccccc1OC (stereo not given) |  | inactive: 28.8% [at 102 µM] |
| COc1ccc(Cc2nnc(SCC(=O)Nc3ncc(C)s3)o2)cc1 | inconclusive: 17.8 µM [inhibitor, partial curve, poor fit] |  |
| CCOc1cc(NS(=O)(=O)c2ccccc2)c(OCC)cc1NC(=O)c1ccco1 | inconclusive: 31.6 µM [inhibitor, full curve] |  |
| COc1ccccc1OC(=O)CCc1nc2ccccc2s1 | active: 50.1 µM |  |
| CCOC(=O)N1CCN(CCc2ccccc2)CC1 |  | inactive: -9.91% [at 102 µM] |
| COc1ccc(N2CCN(C(=O)COC(=O)c3cccc(S(=O)(=O)Nc4cccc(C)c4)c3)CC2)cc1 | active: 10 µM |  |
| CC1(C)CC(=O)C=C(Nc2ccc3c(c2)CCC3)C1 | inconclusive: 89.1 µM [inhibitor, partial curve, poor fit] |  |
| O=C(COC(=O)C1c2ccccc2Oc2ccccc21)Nc1ccc2c(c1)OCO2 |  | inconclusive: -74.5% [inhibitor] |
| Cc1c(CC(=O)O)c(=O)oc2c(C)c(OCc3ccccc3)ccc12 |  | inactive: 2.64% [at 102 µM] |
| Cc1ccc(C(=O)/C=C/c2ccc(-c3ccccc3[N+](=O)[O-])o2)cc1 | active: 25.1 µM |  |

| Structure (SMILES) | Potency | activity, negative = inhibition |
| --- | --- | --- |
| O=C(Cn1c(=O)oc2ccccc21)Nc1nnc(N2CCCCCC2)s1 | inconclusive: 39.8 µM [inhibitor, partial curve, poor fit] |  |
| O=C(CCn1c(=O)oc2ccccc21)N1CCN(c2ccc(F)cc2)CC1 | inconclusive: 50.1 µM [inhibitor, partial curve, poor fit] |  |
| COc1ccc(N2CCN(C(=O)COC(=O)/C=C/c3ccc(C(F)(F)F)cc3)CC2)cc1 | inconclusive: 89.1 µM [inhibitor, single point] |  |
| COC(=O)N1C(=O)[C@](Cc2ccccc2)(c2ccccc2)N1C(=O)OC | active: 39.8 µM |  |
| CC1(C)CC(=O)c2cc(OCC(=O)NCCN3CCCc4ccccc43)ccc2O1 |  | inactive: -7.68% [at 12.7 µM] |
| CN1CCN(C(=O)c2ccc(C(F)(F)F)cc2)CC1 | inconclusive: 50.1 µM [inhibitor, partial curve, poor fit] |  |
| COc1ccccc1-c1nnc(SCC(=O)c2ccc(F)cc2)n1-c1ccccc1 | inconclusive: 35.5 µM [inhibitor, partial curve, poor fit] |  |
| CCc1ccc(CNC(=O)CN2C(=O)CCn3nc(-c4cn(C)c5ccccc45)cc32)cc1 |  | inactive: -19.5% |
| COc1ccc(N2CCN(C(CNC(=O)C(=O)NC3CCCC3)c3ccco3)CC2)cc1 (stereo not given) | active: 7.08 µM |  |
| COc1cccc(OCC(=O)Nc2nnc3n2CCS3)c1 | active: 3.16 µM |  |
| CC(C)C(NC(=O)COc1ccc2ccccc2c1)C(=O)N/N=C/C=C/c1ccccc1 (stereo not given) | inconclusive: 0.891 µM [inhibitor, partial curve, poor fit] |  |
| Cn1ncc(C#N)c1NC(=O)C1CC(c2ccc(Cl)cc2)=NO1 (stereo not given) | inconclusive: 79.4 µM [inhibitor, single point] |  |
| O=C(NCC1CCCO1)NC1(C(F)(F)F)Oc2ccccc2O1 (stereo not given) | inconclusive: 6.31 µM [inhibitor, partial curve] |  |
| Cc1cc(C(=O)Nc2sc(C)c(C)c2C#N)no1 | inconclusive: 20 µM [inhibitor, partial curve, poor fit] |  |
| CCn1c(COc2cccc(C)c2C)nnc1SCC(=O)N1CCN(c2ccc(OC)cc2)CC1 |  | inconclusive: -60.9% [inhibitor] [at 12.7 µM] |
| CCOC(=O)C1(C(C)C)Oc2ccccc2C(c2ccc(OC)cc2)=C1C(=O)OC (stereo not given) |  | inactive: -8.44% |
| O=C(O)/C=C/c1ccc2c(-c3ccccc3)onc2c1 | inconclusive: 4.47 µM [inhibitor, partial curve, poor fit] |  |
| COc1cc(/C=N/NC(=O)c2cc(-c3c(C)nn(-c4ccccc4)c3C)n[nH]2)ccc1O | inconclusive: 56.2 µM [inhibitor, single point] |  |
| Nc1ccccc1SCC(O)Cn1ccc2ccccc21 (stereo not given) |  | inactive: -46.5% [at 102 µM] |
| O=C(Cc1cccs1)Nc1ccc(Cl)c(S(=O)(=O)N2CCOCC2)c1 | inconclusive: 79.4 µM [inhibitor, single point] |  |
| COc1ccc(/C(O)=C2/C(=O)C(=O)N(c3ncccn3)C2c2ccc(C(C)(C)C)cc2)cc1 (stereo not given) | inconclusive: 44.7 µM [inhibitor, partial curve] |  |
| CNC(=S)NNC(=O)c1cccn(Cc2cccc(Cl)c2)c1=O | inconclusive: 22.4 µM [inhibitor, single point] |  |
| COc1ccc(S(=O)(=O)N2CCCCC2)cc1NC(=O)CCNC(=O)c1ccccc1Cl |  | inactive: 9.98% [at 2.33 µM] |
| COc1ccc2[nH]c(=O)c(C(c3nnnn3C3CCCCC3)N3CCN(C)CC3)cc2c1 (stereo not given) |  | inactive: -31.5% [at 12.7 µM] |

| Structure (SMILES) | Potency | activity, negative = inhibition |
| --- | --- | --- |
| CCn1c(-c2ccc(F)cc2)cnc1SCC(=O)N1CCCCC1C (stereo not given) | inconclusive: 31.6 µM [inhibitor, single point] |  |
| FC(F)(F)c1ccccc1-c1cncnc1NCc1cccs1 |  | inactive: 22.3% [at 0.501 µM] |
| O=c1c2ccccc2ncn1-c1ccc(Br)cc1[N+](=O)[O-] | inconclusive: 89.1 µM [inhibitor, single point] |  |
| O=C(O)c1ccccc1C(=O)Nc1ccc(Nc2ccc([N+](=O)[O-])cc2[N+](=O)[O-])cc1 | inconclusive: 79.4 µM [inhibitor, single point] |  |
| CCCCOc1cccc(C(=O)NC(=S)Nc2cccnc2)c1 | inconclusive: 1 µM [inhibitor, partial curve, poor fit] |  |
| CC(=O)N(CCC1(c2ccc(C)cc2)CCOC(C(C)C)C1)Cc1ccco1 (stereo not given) | inconclusive: 1.26 µM [inhibitor, full curve] |  |
| CCOC(=O)CNC(=O)c1ccc2[nH]c3ccccc3c2c1 |  | inactive: 7.46% [at 102 µM] |
| O=C(C[n+]1ccc(-c2nnc3n2CCC3)cc1)c1ccc(Cl)cc1 | inconclusive: 35.5 µM [inhibitor, single point] |  |
| CC1CCCC(C)N1C(=O)COC(=O)CNC(=O)c1ccc(Cl)cc1Cl (stereo not given) |  | inactive: -26.9% [at 102 µM] |
| CN(C)c1ccc(C(CNS(=O)(=O)c2ccc(F)cc2)N2CCc3ccccc32)cc1 (stereo not given) | active: 14.1 µM |  |
| O=C(/C=C/c1cccc(F)c1)c1ccc(N2CCOCC2)cc1 |  | inactive: 2.26% [at 102 µM] |
| COc1cc(-c2nnc(SCC(=O)Oc3ccccc3Cl)o2)cc(OC)c1OC | inconclusive: 39.8 µM [inhibitor, partial curve, poor fit] |  |
| COc1ccc(C(=O)c2coc3ccc(O)c(CN4CCCCC4)c23)cc1 | active: 25.1 µM |  |
| CN(C)CCCN(C(=O)CCc1ccccc1)c1nc2c(F)cccc2s1 | inconclusive: 39.8 µM [inhibitor, single point] |  |
| COc1ccc(S(=O)(=O)Nc2c3ccccc3nc(=O)n2-c2ccccc2)cc1 |  | inactive: 0.753% |
| C=Cc1ccc(Cn2c(=O)cc(C)c3c(C)nn(C)c32)cc1 |  | inactive: 121% |
| Cc1nc2c(ccc3nc(NC(=O)c4ccc(S(=O)(=O)N(C)C)cc4)sc32)s1 | inconclusive: 50.1 µM [inhibitor, partial curve] |  |
| Cc1ccc(Cl)cc1NC(=O)CN1CCN(S(=O)(=O)N2CCC(C)CC2)CC1 |  | inactive: 11.9% [at 102 µM] |
| CC1(C)Cc2nc(-c3ccccc3)nc(SCC(=O)N3CCOCC3)c2CO1 | inconclusive: 100 µM [inhibitor, single point] |  |
| CCOC(=O)C1CCCN(C(=O)c2cnn3c(C(F)F)cc(-c4ccc(C)cc4)nc23)C1 (stereo not given) |  | inconclusive: -81.1% [inhibitor] [at 12.7 µM] |
| Cc1cc(C)n(C(=O)CNc2ccccc2Cl)n1 | inconclusive: 3.55 µM [inhibitor, partial curve, poor fit] |  |
| COC(=O)c1ccc(CN(C)S(=O)(=O)c2ccc(C)cc2)o1 |  | inactive: -3.19% [at 102 µM] |
